# This is one part of the list.
# B1: Langerin K313I (Homo sapiens), Q9UJ71 (protein)
# chain: STLNAQIPELKSDLEKASALNTKIRALQGSLENMSKLLKRQNDILQVVSQGWKYFKGNFYYFSLIPKTWYSAEQFCVSRNSHLTSVTSESEQEFLYKTAGGLIYWIGLTKAGMEGDWSWVDDTPFNKVQSARFWIPGEPNNAGNNEHCGNIKAPSLQAWNDAPCDITFLFICKRPYVPSEP
# Experiments:
# Test in all cases: glycan array binding signal (z-score within array); higher = stronger binding
# Conditions in all cases: glycan notation: IUPAC condensed, linker removed
# [1] = target: Fuc(a1-2)Gal(b1-4)GlcNAc(b1-3)Gal(b1-4)GlcNAc(b1-2)Man(a1-3)[Fuc(a1-2)Gal(b1-4)GlcNAc(b1-3)Gal(b1-4)GlcNAc(b1-2)Man(a1-6)]Man(b1-4)GlcNAc(b1-4)GlcNAc
# Method in brief: (§1)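 Arrays were curated from the Consortium for Functional Glycomics database, 3228 in total, and kept only where the protein sequence was available. Binding is expressed as a within-array Z-score. This score was averaged across arrays of the same protein sequence at different concentrations or buffers and across linkers, and negative values can be read as non-binding.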
# [2] = target: Fuc(a1-2)Gal(b1-4)GlcNAc(b1-3)Gal(b1-4)GlcNAc(b1-3)Gal(b1-4)GlcNAc
# Method in brief: as §1
# [3] = target: Fuc(a1-2)Gal(b1-4)GlcNAc(b1-3)GalNAc
# Method in brief: as §1
# [4] = target: Fuc(a1-2)Gal(b1-4)GlcNAc(b1-3)[Fuc(a1-2)Gal(b1-4)GlcNAc(b1-6)]GalNAc
# Method in brief: as §1
# [5] = target: Fuc(a1-2)Gal(b1-4)GlcNAc(b1-3)[Fuc(a1-3)[Gal(b1-4)]GlcNAc(b1-6)]Gal(b1-4)Glc
# Method in brief: as §1
# [6] = target: Fuc(a1-2)Gal(b1-4)GlcNAc(b1-6)GalNAc
# Method in brief: as §1
# [7] = target: Fuc(a1-2)Gal(b1-4)GlcNAc6S
# Method in brief: as §1
# [8] = target: Fuc(a1-2)Gal(b1-4)[Fuc(a1-3)]GlcNAc
# Method in brief: as §1
# [9] = target: Fuc(a1-2)Gal(b1-4)[Fuc(a1-3)]GlcNAc(b1-2)Man(a1-3)[Fuc(a1-2)Gal(b1-4)[Fuc(a1-3)]GlcNAc(b1-2)Man(a1-6)]Man(b1-4)GlcNAc(b1-4)[Fuc(a1-6)]GlcNAc
# Method in brief: as §1
# [10] = target: Fuc(a1-2)Gal(b1-4)[Fuc(a1-3)]GlcNAc(b1-2)[Fuc(a1-2)Gal(b1-4)[Fuc(a1-3)]GlcNAc(b1-4)]Man(a1-3)[Fuc(a1-2)Gal(b1-4)[Fuc(a1-3)]GlcNAc(b1-2)Man(a1-6)]Man(b1-4)GlcNAc(b1-4)GlcNAc
# Method in brief: as §1
# [11] = target: Fuc(a1-2)Gal(b1-4)[Fuc(a1-3)]GlcNAc(b1-3)Gal(b1-4)[Fuc(a1-3)]GlcNAc
# Method in brief: as §1
# [12] = target: Fuc(a1-2)Gal(b1-4)[Fuc(a1-3)]GlcNAc(b1-3)Gal(b1-4)[Fuc(a1-3)]GlcNAc(b1-3)Gal(b1-4)[Fuc(a1-3)]GlcNAc
# Method in brief: as §1
# [13] = target: Fuc(a1-2)Gal(b1-4)[Fuc(a1-3)]GlcNAc(b1-3)GalNAc
# Method in brief: as §1
# [14] = target: Fuc(a1-2)Gal(b1-4)[Fuc(a1-3)]GlcNAc(b1-3)[Neu5Ac(a2-6)Gal(b1-4)GlcNAc(b1-6)]Gal(b1-4)Glc
# Method in brief: as §1
# [15] = target: Fuc(a1-2)Gal3S(b1-4)GlcNAc
# Method in brief: as §1
# [16] = target: Fuc(a1-2)Gal6S(b1-3)GlcNAc
# Method in brief: as §1
# [17] = target: Fuc(a1-2)Gal6S(b1-3)GlcNAc6S
# Method in brief: as §1
# Fuc(a1-2)Gal6S(b1-4)Glc = target: Fuc(a1-2)Gal6S(b1-4)Glc
# Method in brief: as §1
# [18] = target: Fuc(a1-2)Gal6S(b1-4)Glc6S
# Method in brief: as §1
# Fuc(a1-2)[Gal(a1-3)]Gal = target: Fuc(a1-2)[Gal(a1-3)]Gal
# Method in brief: as §1
# [19] = target: Fuc(a1-2)[Gal(a1-3)]Gal(b1-3)GalNAc
# Method in brief: as §1
# [20] = target: Fuc(a1-2)[Gal(a1-3)]Gal(b1-3)GalNAc(b1-3)Gal(a1-4)Gal(b1-4)Glc
# Method in brief: as §1
# [21] = target: Fuc(a1-2)[Gal(a1-3)]Gal(b1-3)GlcNAc
# Method in brief: as §1
# [22] = target: Fuc(a1-2)[Gal(a1-3)]Gal(b1-3)GlcNAc(b1-2)Man(a1-3)[Fuc(a1-2)[Gal(a1-3)]Gal(b1-3)GlcNAc(b1-2)Man(a1-6)]Man(b1-4)GlcNAc(b1-4)GlcNAc
# Method in brief: as §1
# [23] = target: Fuc(a1-2)[Gal(a1-3)]Gal(b1-3)GlcNAc(b1-2)Man(a1-3)[Fuc(a1-2)[Gal(a1-3)]Gal(b1-3)GlcNAc(b1-2)Man(a1-6)]Man(b1-4)GlcNAc(b1-4)[Fuc(a1-6)]GlcNAc
# Method in brief: as §1
# [24] = target: Fuc(a1-2)[Gal(a1-3)]Gal(b1-3)GlcNAc(b1-3)GalNAc
# Method in brief: as §1
# [25] = target: Fuc(a1-2)[Gal(a1-3)]Gal(b1-3)GlcNAc(b1-6)GalNAc
# Method in brief: as §1
# [26] = target: Fuc(a1-2)[Gal(a1-3)]Gal(b1-4)Glc
# Method in brief: as §1
# [27] = target: Fuc(a1-2)[Gal(a1-3)]Gal(b1-4)GlcNAc
# Method in brief: as §1
# [28] = target: Fuc(a1-2)[Gal(a1-3)]Gal(b1-4)GlcNAc(b1-2)Man
# Method in brief: as §1
binder,measurement,setting,value
B1,glycan array binding signal (z-score),[1],0.009
same,glycan array binding signal (z-score),[2],-0.131
same,glycan array binding signal (z-score),[3],0.031
same,glycan array binding signal (z-score),[4],0.102
same,glycan array binding signal (z-score),[5],-0.324
same,glycan array binding signal (z-score),[6],0.16
same,glycan array binding signal (z-score),[7],-0.329
same,glycan array binding signal (z-score),[8],-0.24
same,glycan array binding signal (z-score),[9],0.218
same,glycan array binding signal (z-score),[10],0.355
same,glycan array binding signal (z-score),[11],-0.194
same,glycan array binding signal (z-score),[12],-0.042
same,glycan array binding signal (z-score),[13],0.245
same,glycan array binding signal (z-score),[14],-0.355
same,glycan array binding signal (z-score),[15],-0.331
same,glycan array binding signal (z-score),[16],-0.333
same,glycan array binding signal (z-score),[17],-0.086
same,glycan array binding signal (z-score),Fuc(a1-2)Gal6S(b1-4)Glc,-0.226
same,glycan array binding signal (z-score),[18],-0.099
same,glycan array binding signal (z-score),Fuc(a1-2)[Gal(a1-3)]Gal,4.11
same,glycan array binding signal (z-score),[19],-0.254
same,glycan array binding signal (z-score),[20],-0.364
same,glycan array binding signal (z-score),[21],-0.303
same,glycan array binding signal (z-score),[22],-0.164
same,glycan array binding signal (z-score),[23],0.373
same,glycan array binding signal (z-score),[24],0.015
same,glycan array binding signal (z-score),[25],-0.062
same,glycan array binding signal (z-score),[26],-0.289
same,glycan array binding signal (z-score),[27],-0.332
same,glycan array binding signal (z-score),[28],-0.379

# Source: the supplement of paper PMC8728848
